# Test results from the supplement of paper PMC4604168 (melanoma cell lines).
# The list shows a part of the results. Most values come without repeats; read them as rough.
# What was measured:
# Experiment in all cases: cell count relative to DMSO control; melanoma cells; higher = more viable cells
# Conditions in all cases: library dose: standard library concentration; 72 h
# G361 = system: G361
# IPC-298 = system: IPC-298
# IST-MEL1 = system: IST-MEL1
# LB2518-MEL = system: LB2518-MEL
# LOXIMVI = system: LOXIMVI
# MEL-HO = system: MEL-HO
# MZ2-MEL = system: MZ2-MEL
# MeWo = system: MeWo
# RPMI7951 = system: RPMI7951
# RVH-421 = system: RVH-421
# SkMel28 = system: SkMel28
# SkMel2 = system: SkMel2
# SkMel30 = system: SkMel30
# SkMel5 = system: SkMel5
# UACC257 = system: UACC257
# UACC62 = system: UACC62
# WM115 = system: WM115
# WM1716 = system: WM1716
# WM1745 = system: WM1745
# WM3526 = system: WM3526
# 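Note: cells treated in 1,536-well plates, then fixed and DAPI-stained, with nuclei counted from automated high-throughput microscope images.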
Compound,cell count (G361),cell count (IPC-298),cell count (IST-MEL1),cell count (LB2518-MEL),cell count (LOXIMVI),cell count (MEL-HO),cell count (MZ2-MEL),cell count (MeWo),cell count (RPMI7951),cell count (RVH-421),cell count (SkMel28),cell count (SkMel2),cell count (SkMel30),cell count (SkMel5),cell count (UACC257),cell count (UACC62),cell count (WM115),cell count (WM1716),cell count (WM1745),cell count (WM3526)
"C[C@@H]1CCN(C(=O)CC#N)C[C@@H]1N(C)c1ncnc2[nH]ccc12 + CCCCCCCCCCCC1=C(O)C(=O)C=C(O)C1=O [Embelin] (first compound 5 µM, partner dose 6 µM)",77.2%,77.2%,71.5%,75.8%,95.2%,80.5%,83.6%,123%,106%,67.2%,69.4%,84%,103%,130%,101%,120%,100%,93%,104%,101%
"O=c1[nH]nc(Sc2ncc([N+](=O)[O-])s2)n1-c1ccc2c(c1)OCCO2 + Cc1ccc(NC(=O)c2cccc(N(C)C)c2)cc1NC(=O)c1ccc(O)cc1 [ZM336372] (first compound 1 µM, partner dose 10 µM)",99.7%,124%,96.5%,82.8%,115%,115%,106%,91.7%,68.1%,97.6%,123%,97.2%,89.3%,86.1%,81.5%,114%,109%,109%,72.3%,95.2%
"CC1(C)NC(=O)N(c2ccc([N+](=O)[O-])c(C(F)(F)F)c2)C1=O [nilutamide] + Oc1cc(-c2nc(-c3ccccc3)[nH]c2-c2ccncc2)ccc1Cl [L779450] (first compound 5 µM, partner dose 1 µM)",52.5%,89%,93.1%,85.4%,99.4%,87%,91.7%,93.6%,74.4%,75.9%,46.5%,37.6%,88.7%,64.8%,91.2%,67.7%,49.3%,74.5%,64.2%,45.7%
"Cn1cncc1[C@@](N)(c1ccc(Cl)cc1)c1ccc2c(c1)c(-c1cccc(Cl)c1)cc(=O)n2C [tipifarnib] + CC(C)CCN1c2nc(Nc3cc(F)c(O)c(F)c3)ncc2N(C)C(=O)C1C [BID1870] (first compound 0.05 µM, partner dose 1 µM)",46%,63.5%,67.2%,82.8%,54.9%,70.1%,73.3%,55.6%,36.8%,86.7%,40.3%,62.5%,72.3%,61.1%,77.2%,82.2%,53.6%,52.5%,79.2%,46.9%
"CC1(C)NC(=O)N(c2ccc([N+](=O)[O-])c(C(F)(F)F)c2)C1=O [nilutamide] + NCC(=O)Nc1ccc(-n2nc(C(F)(F)F)cc2-c2ccc3c(ccc4ccccc43)c2)cc1 [OSU03012] (first compound 5 µM, partner dose 5 µM)",75.6%,68.9%,90.7%,88%,82%,87.6%,94.4%,87.4%,105%,98.3%,25.6%,49.1%,45.9%,53.2%,74.2%,91.1%,94.6%,102%,70%,51.3%
"CC1(C)NC(=O)N(c2ccc([N+](=O)[O-])c(C(F)(F)F)c2)C1=O [nilutamide] + Cn1cc(/C=C2\C(=O)Nc3cccnc32)c2ccccc21 [GW441756] (first compound 5 µM, partner dose 2 µM)",97.2%,103%,112%,84.7%,126%,101%,92.3%,114%,104%,121%,102%,108%,79.6%,69%,86.3%,98.3%,101%,91.5%,84.1%,75.7%
"O=c1[nH]nc(Sc2ncc([N+](=O)[O-])s2)n1-c1ccc2c(c1)OCCO2 + CN(C)S(=O)(=O)c1ccc2c(c1)/C(=C/c1cc3c([nH]1)CCCC3)C(=O)N2 [SU6656] (first compound 1 µM, partner dose 2 µM)",58.7%,71.8%,69%,71.7%,107%,82.4%,93.3%,69.1%,53.6%,67.4%,48%,71.9%,80.3%,64.5%,81.2%,88.4%,35.8%,80.3%,47.3%,71.3%
"C[C@@H]1CCN(C(=O)CC#N)C[C@@H]1N(C)c1ncnc2[nH]ccc12 + CC(C)CCN1c2nc(Nc3cc(F)c(O)c(F)c3)ncc2N(C)C(=O)C1C [BID1870] (first compound 5 µM, partner dose 1 µM)",18.2%,76%,78.5%,124%,104%,80.7%,82.9%,78.2%,96%,106%,51.9%,87.6%,71.8%,74.1%,95.8%,78.4%,108%,141%,82.7%,71.4%
"O=c1[nH]nc(Sc2ncc([N+](=O)[O-])s2)n1-c1ccc2c(c1)OCCO2 + NC(=O)c1ccc(N(C(N)=O)c2c(F)cccc2F)nc1-c1ccc(F)cc1F [VX702] (first compound 1 µM, partner dose 2 µM)",88.3%,87.8%,91.4%,82.4%,106%,89.2%,83%,93.4%,102%,68.5%,90.1%,93.7%,92.7%,82.6%,104%,96.9%,98.8%,96.4%,86.3%,90.6%
